Experimental data published in PubChem BioAssay AID504339 (National Center for Advancing Translational Sciences (NCATS), 2011).
The whole screen tested about 390,000 compounds, of which about 17,000 (4.4%) were called active. The inconclusive results got no clear call from the source; some entries with a clear call stand among them for comparison. Calls come from the whole dose curve; as a rule, active = well fitted inhibition curve with a large enough effect; inconclusive = small, poorly fitted or top-dose-only effect; inactive = no such curve, though single readings can be large or run the other way. Potencies beside an inconclusive call are fits to weak or partial responses and may not hold up.

Biological target: Lysine-specific demethylase 4A (Homo sapiens) (UniProt O75164)
UniProt O75164, sequence (O75164 whole entry, looked up, the tested form may be a part): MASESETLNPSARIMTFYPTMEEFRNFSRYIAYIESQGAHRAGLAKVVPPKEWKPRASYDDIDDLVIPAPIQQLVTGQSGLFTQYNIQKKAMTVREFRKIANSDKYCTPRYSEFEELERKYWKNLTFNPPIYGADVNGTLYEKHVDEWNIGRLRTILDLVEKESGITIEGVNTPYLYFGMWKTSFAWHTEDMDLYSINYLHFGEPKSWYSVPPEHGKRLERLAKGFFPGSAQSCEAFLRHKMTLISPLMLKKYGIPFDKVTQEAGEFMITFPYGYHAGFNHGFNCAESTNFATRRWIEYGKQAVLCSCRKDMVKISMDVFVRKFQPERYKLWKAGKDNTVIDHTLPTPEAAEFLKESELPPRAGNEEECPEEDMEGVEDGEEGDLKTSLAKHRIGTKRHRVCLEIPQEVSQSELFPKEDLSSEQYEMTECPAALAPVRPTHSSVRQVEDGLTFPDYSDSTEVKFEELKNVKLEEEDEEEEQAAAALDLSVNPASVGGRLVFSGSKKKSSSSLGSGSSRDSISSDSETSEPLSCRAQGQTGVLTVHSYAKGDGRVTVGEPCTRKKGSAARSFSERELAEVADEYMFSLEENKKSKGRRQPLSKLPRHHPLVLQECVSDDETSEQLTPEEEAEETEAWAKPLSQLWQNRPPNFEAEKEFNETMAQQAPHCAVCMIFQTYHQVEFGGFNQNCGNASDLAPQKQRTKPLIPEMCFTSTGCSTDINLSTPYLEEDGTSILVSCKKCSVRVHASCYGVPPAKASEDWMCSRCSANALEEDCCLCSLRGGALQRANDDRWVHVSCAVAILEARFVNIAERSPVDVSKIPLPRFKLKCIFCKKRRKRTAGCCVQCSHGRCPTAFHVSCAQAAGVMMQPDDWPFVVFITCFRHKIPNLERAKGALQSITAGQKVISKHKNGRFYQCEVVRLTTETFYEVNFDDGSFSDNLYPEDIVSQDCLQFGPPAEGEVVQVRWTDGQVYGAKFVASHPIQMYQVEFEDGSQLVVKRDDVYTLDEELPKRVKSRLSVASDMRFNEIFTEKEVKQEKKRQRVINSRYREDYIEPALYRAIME
Assay: qHTS Assay for Inhibitors of JMJD2A-Tudor Domain; note: nearly all actives have a fitted effect of over 50% in size
Settings: AlphaScreen JMJD2A-Tudor / H3K4me3 peptide binding; activity change, negative = inhibition: at 114 µM (top of the series)
% is set by controls: 0 for no effect and ±100 for the full control effect; potency is the fitted concentration of half-maximal effect; tags give direction and shape of the fitted curve.

| Structure (SMILES) | activity change, negative = inhibition | Potency |
| --- | --- | --- |
| O=C(NC1CCCC1)c1cc(S(=O)(=O)N2CCOCC2)c(Cl)cc1Cl | inactive: -14.9% |  |
| CCOc1ccc(-c2cc(OC(=O)c3ccccc3)c3c(C)oc(C)c3c(=O)c2)cc1 |  | inconclusive: 56.2 µM [inhibitor, partial curve] |
| Oc1ccc(-c2nccc(-c3ccc(F)cc3)n2)cc1 | inactive: -11.2% |  |
| CCN1C(=O)C(CC(=O)Nc2ccc(OC)cc2)N(CCCN2CCN(c3ccc(OC)cc3)CC2)C1=S (stereo not given) |  | active: 50.1 µM |
| COc1ccc(Cl)cc1NC(=O)Cn1cc(C(=O)c2ccncc2)c(=O)c2cc(C)ccc21 | inactive: -20.1% |  |
| CSc1cccc(N2CC(C(=O)Nc3cccc(S(=O)(=O)N4CCCC4)c3)CC2=O)c1 (stereo not given) |  | inconclusive: 35.5 µM [inhibitor, partial curve] |
| NC(Cc1ccc(O)c([N+](=O)[O-])c1)C(=O)O (stereo not given) |  | inconclusive: 89.1 µM [inhibitor, single point] |
| O=C(CSc1ccc2ccccc2n1)c1ccccc1 | inactive: 80.7% |  |
| CN1CCC2(CC1)Nc1nc(SCc3ccc(Cl)cc3)nn1C1=C2CN(C)CC1 |  | inconclusive: 89.1 µM [inhibitor, single point] |
| CCOC(=O)N1CCC(Nc2cccc(SC)c2)CC1 |  | inconclusive: 79.4 µM [inhibitor, partial curve] |
| O=C(NC1(Cc2ccccc2)CCN(Cc2ccc(-c3ccccc3)cc2)C1=O)c1ccccc1 (stereo not given) |  | inconclusive: 14.1 µM [inhibitor, full curve, poor fit] |
| C[C@H](NC(=O)c1ccc(Cl)cc1)C(=O)OCn1nnc2ccccc2c1=O |  | inconclusive: 2.51 µM [inhibitor, partial curve, poor fit] |
| COC(=O)Cc1csc(NC(=O)CSc2nnc3ccccn23)n1 |  | inconclusive: 20 µM [inhibitor, partial curve] |
| Clc1nssc1=Nc1ccc(Br)cc1 |  | active: 25.1 µM |
| COc1ccc(Cl)cc1-c1nc(SCC(=O)NC2CC2)n[nH]1 |  | inconclusive: 14.1 µM [inhibitor, full curve, poor fit] |
| CCCOC(=O)CSc1nnc2ccc3ccccc3n12 |  | inconclusive: 39.8 µM [inhibitor, single point] |
| COC(=O)Nc1sc2c(c1C(N)=O)CCCCCC2 |  | inconclusive: 89.1 µM [inhibitor, single point] |
| CCOc1cc(CNCc2cc(OC)cc(OC)c2)ccc1OC |  | active: 1 µM |
| CCOC(=O)C1=C(C)NC(SCC(=O)O)=C(C#N)C1c1ccco1 (stereo not given) |  | inconclusive: 89.1 µM [inhibitor, single point] |
| O=C(CN(Cc1cccs1)C(=O)CNS(=O)(=O)c1ccc(Cl)cc1)NCc1ccco1 |  | inconclusive: 44.7 µM [inhibitor, full curve, poor fit] |
| O=C(Nc1cc(N2CCCCC2)ncn1)c1ccccc1 |  | inconclusive: 50.1 µM [inhibitor, partial curve] |
| O=C(O)c1ccc(Cl)c(S(=O)(=O)N(Cc2ccccc2)c2ccc(Cl)cc2)c1 | inactive: -17.4% |  |
| CC(C)[C@@H](COc1ccccc1)N1CCN(Cc2ccccc2)CCC1=O |  | inconclusive: 44.7 µM [inhibitor, partial curve] |
| COc1cc(C(c2c(C(=O)O)[nH]c3ccccc23)c2c(C(=O)O)[nH]c3ccccc23)ccc1OCc1ccccc1 |  | inconclusive: 50.1 µM [inhibitor, partial curve] |

| Structure (SMILES) | activity change, negative = inhibition | Potency |
| --- | --- | --- |
| O=C(NCCCc1ccccc1)c1cc(COc2ccc(F)cc2Cl)on1 |  | inconclusive: 25.1 µM [inhibitor, single point] |
| Cc1nc2ncccn2c1-c1csc(Nc2cccc(C(=O)O)c2)n1 |  | inconclusive: 11.2 µM [inhibitor, partial curve] |
| CCCCCCOC(=O)C(C#N)c1nc2ccccc2nc1N1CCN(C)CC1 (stereo not given) |  | inconclusive: 35.5 µM [inhibitor, partial curve] |
| COc1cccc(N2CCN(C(=O)c3ccc(-c4ccccc4)cc3)CC2)c1 |  | inconclusive: 50.1 µM [inhibitor, partial curve] |
| CCc1cccc(C)c1NC(=O)Cn1ccn(-c2ccc(F)cc2)c(=O)c1=O | inactive: 5.92% |  |
| CCOc1ccc(C2CC(=O)c3c([nH]c(C(=O)OCc4ccccc4)c3C)C2)cc1 (stereo not given) | inactive: -34.6% |  |
| CNCc1nc2ccccc2[nH]1 |  | inconclusive: 35.5 µM [inhibitor, single point] |
| O=C(NCc1ccco1)c1cc([N+](=O)[O-])ccc1N1CCCCC1 |  | inconclusive: 15.8 µM [inhibitor, partial curve] |
| COc1ccc2nc(C)cc(Sc3nc4ccccc4s3)c2c1 |  | active: 79.4 µM |
| CCCc1cc(-c2n[nH]c(=S)n2CC(C)C)cs1 |  | active: 79.4 µM |
| CCC1=Nc2cc(C(=O)N3CCCCC3)ccc2Sc2ccc(C)cc21 |  | inconclusive: 50.1 µM [inhibitor, partial curve] |
| CC(=O)c1c(N2CCN(c3cccc(Cl)c3)CC2)nc(=S)n(-c2ccccc2)c1C |  | inconclusive: 56.2 µM [inhibitor, partial curve] |
| CC(C)=CCC12Oc3cc(O)ccc3C1(O)Oc1cc(O)c([C@H]3C=C(C)CC(c4ccc(O)cc4O)[C@H]3C(=O)c3ccc(O)cc3O)c(O)c1C2=O (stereo not given in full) |  | active: 39.8 µM |
| Oc1ccc(/C=N/N(Cc2ccccc2)c2ccccc2)c(O)c1O |  | active: 56.2 µM |
| COc1ccccc1N1CCN(c2ncnc3c2cnn3C)CC1 | inactive: -17.4% |  |
| Cn1cnnc1SCC(=O)NN1C(=O)NC(C)(c2ccccc2)C1=O (stereo not given) | inactive: -10.6% |  |
| CC1=NN(C(N)=S)C(=O)C1N=Nc1ccccc1C (stereo not given) | inactive: -25% |  |
| Cc1ccoc1C(=O)NCc1occc1C(=O)O |  | inconclusive: 89.1 µM [inhibitor, single point] |
| COc1ccc(/C=N/NC(=O)c2ccccc2O)cc1Cn1cc(Cl)cn1 |  | inconclusive: 70.8 µM [inhibitor, single point] |
| Cc1cc(OC(=O)c2ccco2)c(Sc2ccccc2[N+](=O)[O-])c(=O)o1 |  | inconclusive: 56.2 µM [inhibitor, partial curve] |
| COc1ccc2c(c1OC)C(=O)N(c1ncn[nH]1)C2 |  | active: 39.8 µM |
| COc1ccc(O)c(/C=N/NC(=O)c2c(C)nnn2-c2nonc2N)c1 |  | inconclusive: 44.7 µM [inhibitor, partial curve] |
| CCOc1ccc(C2=NC(c3cccs3)=Nc3ccc(C(C)C)cc3N2)cc1 |  | active: 20 µM |
| CCN(CC)CCCNC(=O)/C=C/C(=O)O |  | inconclusive: 22.4 µM [inhibitor, partial curve] |

| Structure (SMILES) | activity change, negative = inhibition | Potency |
| --- | --- | --- |
| CC(C)COC(=O)c1ccc2c(c1O)C(=O)c1ccccc1C2=O |  | active: 7.94 µM |
| Cc1ccc(C)c(Nc2nc(-c3cccnc3)cs2)c1 |  | inconclusive: 79.4 µM [inhibitor, partial curve, poor fit] |
| O=C(NCc1ccccc1OC(F)(F)F)C1CCC(=O)N(Cc2ccccn2)C1 (stereo not given) |  | inconclusive: 14.1 µM [inhibitor, partial curve, poor fit] |
| O=C(NC1CC1)c1cccc2c1C(=O)c1ccc(N3CCC(Cc4ccccc4)CC3)cc1S2(=O)=O |  | inconclusive: 3.98 µM [inhibitor, single point] |
| COc1ccc(-c2nn(C)c(=O)c3ccccc23)cc1NC(=O)COc1ccc(C)cc1 |  | inconclusive: 50.1 µM [inhibitor, partial curve] |
| CN(Cc1ccccc1)S(=O)(=O)c1ccc(F)c(C(=O)Nc2cccc(Cl)c2Cl)c1 | inactive: -7.03% |  |
| COc1ccc(C2=NCCn3c2c2ccc(C(F)(F)F)cc2[n+]3[O-])cc1 |  | inconclusive: 2.82 µM [inhibitor, full curve] |
| CN(CC(=O)Nc1ccc(Cl)c(C(F)(F)F)c1)C(=O)CCN1C(=O)C2CC=CCC2C1=O (stereo not given) | inactive: -2.74% |  |
| O=C(N/N=C/c1cn(-c2ccccc2)nc1-c1ccc(F)cc1)c1ccc2c(c1)OCO2 |  | inconclusive: 3.55 µM [inhibitor, single point] |
| CN(C)c1ccc(NC(=O)CSc2nnc(C3CCCCC3)n2N)cc1 |  | inconclusive: 56.2 µM [inhibitor, partial curve] |
| CCOc1ccc(N=C2NC(=O)/C(=C/C(=O)OC)S2)cc1 | inactive: -19.9% [at 57.1 µM] |  |
| CC(C)C(=O)Nc1ccc(N2CCCC2)cc1 |  | inconclusive: 89.1 µM [inhibitor, single point] |
| Cc1ccc(NC(=O)CN(C)C(=O)c2cc(-c3ccco3)nc3ccccc23)cc1 |  | active: 20 µM |
| COc1ccc(CC(=O)NCc2ccc(-n3cccc3)cc2)cc1OC |  | inconclusive: 31.6 µM [inhibitor, single point] |
| COc1ccc(N2CCN(c3nc(-c4ccccc4F)nc4ccccc34)CC2)cc1 |  | inconclusive: 22.4 µM [inhibitor, full curve] |
| Cc1nc(Nc2cc(F)ccc2C)c2nnn(Cc3ccccc3)c2n1 |  | inconclusive: 28.2 µM [inhibitor, partial curve] |
| O=C(CN1CCCc2ccccc21)N/N=C/c1c(O)ccc2ccccc12 |  | inconclusive: 39.8 µM [inhibitor, partial curve] |
| CC1(N2CCOCC2)CC2(O)C(=[N+]1[O-])CCc1c2no[n+]1[O-] (stereo not given) |  | inconclusive: 39.8 µM [inhibitor, single point] |
| COc1ccc(/C=C2\C(=O)OCc3cc(OC)c(OC)cc32)cc1OC |  | inconclusive: 35.5 µM [inhibitor, single point] |
| Cc1[nH]nc2c1C(c1cc(Br)cs1)C(C#N)=C(N)O2 (stereo not given) | inactive: -4.83% |  |
| COc1ccc(OC)c2sc(N3CCc4ccccc4C3)nc12 |  | inconclusive: 50.1 µM [inhibitor, partial curve] |
| O=C(COC(=O)CNC(=O)c1ccccc1)Nc1nnc(-c2ccccc2)o1 |  | inconclusive: 15.8 µM [inhibitor, partial curve] |
